# Some of the results follow. Single values of this set are uncertain. Values with irradiation are relative to irradiated vehicle.
# Tested on: A549-Dual
# Experiment: NF-kB reporter (SEAP) activity, viability-corrected, relative to vehicle (fold change vs vehicle); higher = more activation of STING-IRF / NF-kB immune response reporter
# Details: 0.1 µM; irradiation: 8 Gy/4 fr
# 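Further: viability correction based on the alamar blue assay, with concentrations leaving 10% survival or less dropped.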
row,Structure (SMILES),NF-kB reporter
1,C=CC(=O)Nc1cc(Nc2nccc(-c3cn(C)c4ccccc34)n2)c(OC)cc1N(C)CCN(C)C [Osimertinib (AZD9291)],0.924
2,CC1CC2C3CCC4=CC(=O)C=CC4(C)C3(F)C(O)CC2(C)C1(O)C(=O)COP(=O)([O-])[O-].[Na+].[Na+] (centres undefined) [Dexamethasone Sodium Phosphate],0.942
3,O=C(O)CCCN1CCC(OC(c2ccc(Cl)cc2)c2ccccn2)CC1.O=S(=O)(O)c1ccccc1 (centres undefined) [Bepotastine Besilate],1.24
4,CC(=O)OC(C)C(C)C(=O)OCC12C3CC4(C)C(=CCC5C6(C)CCC(OC7OC(C(=O)[O][Na])C(OC8OC(CO)C(O)C(O)C8O)C(O)C7OC7OCC(O)C(O)C7O)C(C)(CO)C6CCC54C)C1CC(C)(C)C(O3)C2O (centres undefined) [Sodium Aescinate],1.47
5,Nc1nc(CC(=O)Nc2ccc(CCNCC(O)c3ccccc3)cc2)cs1 (centres undefined) [Mirabegron],1.02
6,O=C1OC(OC(=O)c2cccnc2Nc2cccc(C(F)(F)F)c2)c2ccccc21 (centres undefined) [Talniflumate],0.945
7,CN1C(C(=O)Nc2ccccn2)=C(O)c2sccc2S1(=O)=O [Tenoxicam],0.936
8,CCC(=O)NS(=O)(=O)c1ccc(-c2c(-c3ccccc3)noc2C)cc1 [Parecoxib],1.28
9,CNCC(O)C(O)C(O)C(O)CO.Cc1c(Nc2ncccc2C(=O)O)cccc1C(F)(F)F [Flunixin Meglumin],0.909
10,Cc1cncc(CN2CCC(=C3c4ccc(Cl)cc4CCc4cccnc43)CC2)c1.O=C(O)/C=C/C(=O)O [Rupatadine Fumarate],0.934
11,COC(=O)CC(O)(CCCC(C)(C)O)C(=O)OC1C(OC)=CC23CCCN2CCc2cc4c(cc2C13)OCO4 (centres undefined) [Homoharringtonine],0.835
12,CC(C(=O)[O-])c1ccc(CC2CCCC2=O)cc1.[Na+] (centres undefined) [Loxoprofen Sodium],1.56
13,C=C1c2cccc(O)c2C(=O)C2=C(O)C3(O)C(=O)C(C(N)=O)=C(O)C(N(C)C)C3C(O)C12.Cl (centres undefined) [Methacycline HCl],1.17
14,CC1CCC2(C(=O)OC3OC(COC4OC(CO)C(OC5OC(C)C(O)C(O)C5O)C(O)C4O)C(O)C(O)C3O)CCC3(C)C(=CCC4C5(C)CC(O)C(O)C(C)(CO)C5CCC43C)C2C1C (centres undefined) [Asiaticoside],1.21
15,Nc1nc(F)nc2c1ncn2C1OC(CO)C(O)C1O (centres undefined) [Fludarabine],0.866
16,O=NN(CCCl)C(=O)NC1CCCCC1 [Lomustine],0.866
17,O=CC(O)C(O)C(O)C(O)COC1OC(CO)C(O)C(O)C1O (centres undefined) [Melibiose],1.18
18,O.S=c1nc[nH]c2nc[nH]c12 [6-Mercaptopurine (6-MP) Monohydrate],0.903
19,CC(C(=O)O)c1cccc(C(=O)c2ccccc2)c1 (centres undefined) [Ketoprofen],0.93
20,CNC1CCC(c2ccc(Cl)c(Cl)c2)c2ccccc21.Cl (centres undefined) [Sertraline HCl],0.944

row,Structure (SMILES),NF-kB reporter
1,CC1(C)OC2CC3C4CCC5=CC(=O)CCC5(C)C4(F)C(O)CC3(C)C2(C(=O)CCl)O1 (centres undefined) [Halcinonide],0.827
2,CC(=O)OC12COC1CC(O)C1(C)C(=O)C(O)C3=C(C)C(OC(=O)C(O)C(NC(=O)OC(C)(C)C)c4ccccc4)CC(O)(C(OC(=O)c4ccccc4)C21)C3(C)C (centres undefined) [Docetaxel],1.04
3,CCN(CC)Cc1cc(Nc2ccnc3cc(Cl)ccc23)ccc1O.Cl.Cl [Amodiaquine hydrochloride],1.04
4,Cc1c(N)c(=O)n(-c2ccccc2)n1C [4-Aminoantipyrine],0.993
5,Cn1cnc2c(F)c(Nc3ccc(Br)cc3F)c(C(=O)NOCCO)cc21,1.03
6,CC1(C)C2CCC1(C)C(O)C2 (centres undefined) [Borneol],0.978
7,CC1CC2C3CCC4=CC(=O)C=CC4(C)C3(Cl)C(O)CC2(C)C1(OC(=O)c1ccco1)C(=O)CCl (centres undefined) [Mometasone furoate],0.544
8,CCN(CC)CCCC(C)Nc1ccnc2cc(Cl)ccc12.O=P(O)(O)O.O=P(O)(O)O (centres undefined) [Chloroquine Phosphate],1.48
9,"COc1cc2c(cc1Cc1cccc(Cl)c1F)c(=O)c(C(=O)O)cn2C(CO)C(C)C (centres undefined) [Elvitegravir (GS-9137, JTK-303)]",1.14
10,O=c1[nH]c(=O)n(C2CC(O)C(CO)O2)cc1F (centres undefined) [Floxuridine],1.16
11,"CC1(C)CCC(CN2CCN(c3ccc(C(=O)NS(=O)(=O)c4ccc(NCC5CCOCC5)c([N+](=O)[O-])c4)c(Oc4cnc5[nH]ccc5c4)c3)CC2)=C(c2ccc(Cl)cc2)C1 [Venetoclax (ABT-199, GDC-0199)]",1.02
12,Cc1ccc(NC(=O)c2ccc(CN3CCN(C)CC3)cc2)cc1Nc1nc(-c2cccnc2)cs1 [Masitinib (AB1010)],1.04
13,CCc1cc(/C(C)=N/OCc2ccc(C3CCCCC3)c(C(F)(F)F)c2)ccc1CN1CC(C(=O)O)C1 [BAF312 (Siponimod)],0.925
14,CN(C)C(=O)COC(=O)Cc1ccc(OC(=O)c2ccc(NC(=N)N)cc2)cc1.CS(=O)(=O)O [Camostat Mesilate],0.866
15,Nc1nc(=S)c2[nH]cnc2[nH]1 [Thioguanine],0.841
16,OCC1OC(Oc2cc(O)cc(/C=C/c3ccc(O)cc3)c2)C(O)C(O)C1O (centres undefined) [Polydatin],1.37
17,COc1cc(N2CCC(N3CCN(C)CC3)CC2)ccc1Nc1ncc(Cl)c(Nc2ccccc2P(C)(C)=O)n1,0.873
18,Cc1cccn2c(=O)c(-c3nnn[n-]3)cnc12.[K+] [Pemirolast potassium],1.53
19,Cc1cccc(N(C)C(=S)Oc2ccc3ccccc3c2)c1 [Tolnaftate],0.956
